# According to the supplement of paper PMC10037445:
# Whole data set: some 2,900 compounds, median “IRF Lucia reporter activity, fold change vs agonist alone” near 0.9, cut for the highest 2% near 2.8. The list shows a part of the results.
# Assays:
# RAW-Dual [1] = experiment: IRF Lucia reporter activity, fold change vs agonist alone; cytotoxicity flag (confluency mask): not cytotoxic; higher = enhanced IRF activity
# In short: (§1)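 Supernatant from RAW-Dual macrophages was read after 20 hours for IRF by QuantiLuc luminescence and for NF-κB by QuantiBlue absorbance at 620 nm. The cells (50,000 cells/well in DMEM, 384-well plates, 37 °C, 5% CO2) had received 50 nL of library stock by pin tool and, 1 h later, a PRR agonist. Reporter activity is expressed relative to agonist-alone wells as fold change, and wells were flagged cytotoxic if IncuCyte confluency was under 70% of agonist controls in both mask sets.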
# RAW-Dual [2] = experiment: IRF Lucia reporter activity, fold change vs agonist alone; higher = enhanced IRF activity; details: agonist: MPLA (TLR4) […]
# In short: as §1
# RAW-Dual [3] = experiment: IRF Lucia reporter activity, fold change vs agonist alone; cytotoxicity flag (confluency mask): cytotoxic (confluency <70% of control); higher = enhanced IRF activity
# In short: as §1
# [4] = agonist: 3'3'-cGAMP (STING) 10 ug/mL
# [5] = library stock concentration (final ~1000-fold dilution): 10 mM, cytotoxicity flag (confluency mask): not cytotoxic
smiles,measurement,setting,value
CC12NC(Cc3ccccc31)c1ccccc12.O=C(O)/C=C\C(=O)O (stereo not drawn) (library stock concentration (final ~1000-fold dilution): 10 mM),IRF Lucia reporter activity,RAW-Dual [1]; [4],1.04
same,IRF Lucia reporter activity,RAW-Dual [1]; agonist: LPS (TLR4) 0.1 ug/mL,0.977
CC12NC(Cc3ccccc31)c1ccccc12.O=C(O)/C=C\C(=O)O (stereo not drawn),IRF Lucia reporter activity,RAW-Dual [2]; [5],1.1
Cl.O=C1CCC2(O)C3Cc4ccc(O)c5c4C2(CCN3CC2CC2)C1O5 (stereo not drawn) (library stock concentration (final ~1000-fold dilution): 10 mM),IRF Lucia reporter activity,RAW-Dual [1]; [4],0.982
same,IRF Lucia reporter activity,RAW-Dual [1]; agonist: LPS (TLR4) 0.1 ug/mL,0.99
Cl.O=C1CCC2(O)C3Cc4ccc(O)c5c4C2(CCN3CC2CC2)C1O5 (stereo not drawn),IRF Lucia reporter activity,RAW-Dual [2]; [5],0.989
CNC1C(O)C(OC2C(N)CC(N)C(OC3OC(C(C)O)C(O)C(O)C3N)C2O)OCC1(C)O.O=S(=O)(O)O.O=S(=O)(O)O (stereo not drawn),IRF Lucia reporter activity,"RAW-Dual [2]; library stock concentration (final ~1000-fold dilution): 10 mM water, cytotoxicity flag (confluency mask): not cytotoxic",1.47
CNC1C(O)C(OC2C(N)CC(N)C(OC3OC(C(C)O)C(O)C(O)C3N)C2O)OCC1(C)O.O=S(=O)(O)O.O=S(=O)(O)O (stereo not drawn) (library stock concentration (final ~1000-fold dilution): 10 mM water),IRF Lucia reporter activity,RAW-Dual [1]; [4],1.47
same,IRF Lucia reporter activity,RAW-Dual [1]; agonist: LPS (TLR4) 0.1 ug/mL,0.916
CC1(C)C(=O)N(c2ccc(C#N)c(C(F)(F)F)c2)C(=O)N1CCCCO (library stock concentration (final ~1000-fold dilution): 10 mM),IRF Lucia reporter activity,RAW-Dual [1]; [4],1.1
same,IRF Lucia reporter activity,RAW-Dual [1]; agonist: LPS (TLR4) 0.1 ug/mL,1.39
CC1(C)C(=O)N(c2ccc(C#N)c(C(F)(F)F)c2)C(=O)N1CCCCO,IRF Lucia reporter activity,RAW-Dual [2]; [5],1.03
O=C(OC1C[N+]2(CCCOc3ccccc3)CCC1CC2)C(O)(c1cccs1)c1cccs1 (stereo not drawn) (library stock concentration (final ~1000-fold dilution): 10 mM),IRF Lucia reporter activity,RAW-Dual [1]; [4],1.07
same,IRF Lucia reporter activity,RAW-Dual [1]; agonist: LPS (TLR4) 0.1 ug/mL,1.3
O=C(OC1C[N+]2(CCCOc3ccccc3)CCC1CC2)C(O)(c1cccs1)c1cccs1 (stereo not drawn),IRF Lucia reporter activity,RAW-Dual [2]; [5],1.17
CC(C)(C)c1cc(C=C(C#N)C#N)cc(Br)c1O,IRF Lucia reporter activity,"RAW-Dual [2]; library stock concentration (final ~1000-fold dilution): 10 mM, cytotoxicity flag (confluency mask): cytotoxic (confluency <70% of control)",0.904
CC(C)(C)c1cc(C=C(C#N)C#N)cc(Br)c1O (library stock concentration (final ~1000-fold dilution): 10 mM),IRF Lucia reporter activity,RAW-Dual [3]; [4],0.305
same,IRF Lucia reporter activity,RAW-Dual [3]; agonist: LPS (TLR4) 0.1 ug/mL,0.69
CC(C)[C@]12O[C@H]1[C@@H]1O[C@]13[C@]1(O[C@H]1C[C@H]1C4=C(CC[C@@]13C)C(=O)OC4)[C@@H]2O (library stock concentration (final ~1000-fold dilution): 10 mM),IRF Lucia reporter activity,RAW-Dual [3]; [4],0.0202
same,IRF Lucia reporter activity,RAW-Dual [3]; agonist: LPS (TLR4) 0.1 ug/mL,0.0168
COc1cc2c(c(OC)c1OC)-c1ccc(OC)c(=O)cc1C(NC(C)=O)CC2 (stereo not drawn) (library stock concentration (final ~1000-fold dilution): 10 mM),IRF Lucia reporter activity,RAW-Dual [1]; [4],0.104
same,IRF Lucia reporter activity,RAW-Dual [1]; agonist: LPS (TLR4) 0.1 ug/mL,1.6
COc1cc2c(c(OC)c1OC)-c1ccc(OC)c(=O)cc1C(NC(C)=O)CC2 (stereo not drawn),IRF Lucia reporter activity,RAW-Dual [2]; [5],1.87
